{"source": "PubChem BioAssay AID1508642", "about": "(National Center for Advancing Translational Sciences (NCATS), 2021)", "note": "About 200 (0.47%) of roughly 43,000 compounds were called active. Another 12% or so got no clear call; they are omitted. The call rests on the fitted dose curve; in most records, active means well fitted cell-killing curve with a large enough effect; inconclusive means small, poorly fitted or top-dose-only effect, or effect the other way; inactive means flat fitted curve, though single readings scatter. The list shows a part of the results. On the % scale 0 is the no-effect control and ±100 the full control effect.", "data": [{"experiment": "Cell viability qHTS assay in S16 Pmp22-F2sN cells; further: nearly all actives have a fitted effect of over 65% in size", "conditions": "S16 Pmp22-F2sN Schwann cells (luciferase reporters placed in the Pmp22 gene) viability, CellTiter-Glo, 24 h; series mostly up to 57.5 µM; activity change, negative = cytotoxicity: at the top concentration", "summary_of_the_method": "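Rat S16 Schwann reporter line, 24 h treatment with library compounds delivered at 23 nL per well. Cell viability by CellTiter-Glo luminescence.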", "values": [{"smiles": "CC(=O)Nc1ccc(NC(=O)c2cc(CN3CCCC3)on2)cc1", "activity change, negative = cytotoxicity": "inactive: 6.38%"}, {"smiles": "COc1ccccc1C(=O)Nc1cccc(C(=O)OCc2cc(=O)n3c4c(sc3n2)CCCC4)c1", "activity change, negative = cytotoxicity": "inactive: -4.13%"}, {"smiles": "COc1ccc(NC(=O)CSc2oc(-c3ccco3)nc2S(=O)(=O)c2ccc(C)cc2)c(OC)c1", "activity change, negative = cytotoxicity": "inactive: -7.17%"}, {"smiles": "CCOc1ccc(NC(=O)Cn2c(=O)n(CC3CCC(C(=O)NCCc4ccccc4)CC3)c(=O)c3ccccc32)cc1", "note": "(stereo not given)", "activity change, negative = cytotoxicity": "inactive: -0.696%"}, {"smiles": "COCCCNC(=O)c1nn(C)c2c1CS(=O)(=O)c1ccccc1-2", "activity change, negative = cytotoxicity": "inactive: -8.85%"}, {"smiles": "CCc1cccc(NC(=O)Cc2nc(-c3ccc(OC)cc3)no2)c1", "activity change, negative = cytotoxicity": "inactive: 6.32%"}, {"smiles": "Cc1csc2nc(COC(=O)c3cccc(NC(=O)COc4ccccc4Cl)c3)cc(=O)n12", "activity change, negative = cytotoxicity": "inactive: 22.7%"}, {"smiles": "COCc1cc(C)nc2sc3c(c12)NC(c1ccccc1C(=O)O)N(c1cccc(C(F)(F)F)c1)C3=O", "note": "(stereo not given)", "activity change, negative = cytotoxicity": "inactive: 0.584%"}, {"smiles": "COc1cc([N+](=O)[O-])ccc1NC(=O)c1nc2ccccc2n(C)c1=O", "activity change, negative = cytotoxicity": "inactive: 7.87%"}, {"smiles": "O=C(CSc1nnc2[nH]c(=O)cc(-c3ccccc3)n12)Nc1ccc(OC(F)(F)F)cc1", "activity change, negative = cytotoxicity": "inactive: -0.246%"}, {"smiles": "COc1ccc(CNC(=O)CC2N=C3c4ccccc4N=C(SCC(=O)Nc4ccc(C(C)C)cc4)N3C2=O)cc1", "note": "(stereo not given)", "activity change, negative = cytotoxicity": "inactive: 3.32%"}, {"smiles": "COC(=O)CCCn1c(-c2ccc(C)cc2)c(C)n2c3c(=O)n(C)c(=O)n(C)c3nc12", "activity change, negative = cytotoxicity": "inactive: 5.9%"}, {"smiles": "COc1ccc(-c2cn3c(n2)sc2cc(C(=O)NC(C)C45CC6CC(CC(C6)C4)C5)ccc23)cc1", "note": "(stereo not given)", "activity change, negative = cytotoxicity": "inactive: 9.48%"}, {"smiles": "CCN1CCSc2ccc(C(=O)NCc3ccc(F)cc3)cc21", "activity change, negative = cytotoxicity": "inactive: -3.63%"}, {"smiles": "COc1ccc(CNC(=O)Cn2ncc3c(=O)oc4ccccc4c32)c(OC)c1", "activity change, negative = cytotoxicity": "inactive: -5.28%"}, {"smiles": "Cc1ccc(CNC(=O)CCSCc2cnn(-c3ccccc3)c2-n2cccc2)cc1", "activity change, negative = cytotoxicity": "inactive: 2.05%"}, {"smiles": "COc1ccc(NCc2cccn2-c2nnc(N3CCOCC3)s2)cc1OC", "activity change, negative = cytotoxicity": "inactive: -1.6%"}, {"smiles": "COc1ccc(S(=O)(=O)NCCc2sc(-c3cccnc3)nc2C)cc1OC", "activity change, negative = cytotoxicity": "inactive: 0.155%"}, {"smiles": "COc1cc(CN(C(=O)c2ccccc2Br)c2ccccn2)cc(OC)c1OC", "activity change, negative = cytotoxicity": "inactive: -14.1%"}, {"smiles": "CC(=O)c1c(C)n(S(=O)(=O)c2ccc(Cl)cc2)c2ccc(NS(=O)(=O)c3ccc(Cl)cc3)cc12", "activity change, negative = cytotoxicity": "inactive: 2.2%"}, {"smiles": "Cc1cc(C)cc(NC(=O)Cn2nc(N3CCN(c4ccccc4)CC3)ccc2=O)c1", "activity change, negative = cytotoxicity": "inactive: -1.28%"}, {"smiles": "CC(C)c1ccc(OCC(=O)Nc2cc(-c3ccccc3)no2)cc1", "activity change, negative = cytotoxicity": "inactive: 29.3%"}, {"smiles": "CCOc1cc2c(cc1OCC)C(CC(=O)OC)N(C(=O)Nc1cc(OC)ccc1OC)CC2", "note": "(stereo not given)", "activity change, negative = cytotoxicity": "inactive: -22.6%"}, {"smiles": "CCN(CC)C(=O)c1sc2c(c1C)c(=O)n(CCc1ccccc1)c(=O)n2Cc1ccc(C)cc1", "activity change, negative = cytotoxicity": "inactive: -1.22%"}, {"smiles": "Cc1ccc(NC(=O)CN2C(=O)C(c3ccc(C)cc3)=NC23CCCCCC3)cc1", "activity change, negative = cytotoxicity": "inactive: -28.4%"}]}]}
